PubChem BioAssay (Tox21)
Several values for one entry are separate records, joined by “and”; a condition that tells them apart may be missing. Equal entries are not always repeated. Inconclusive results, whose numbers are uncertain, are shown with a selection of clear calls. For some assays here: A potency beside an inconclusive call is a rough fit, not a confirmed value. Activity calls are given as the source filed them. Unless noted, the call rests on the fitted dose curve; in most records, active means well fitted curve in the direction sought with a large enough effect in the repeat runs; inconclusive means weak or mixed curves; inactive means no such curve, though single readings can be large; an effect the other way counts as inactive or inconclusive.

Legend:
[1] = qHTS assay to identify small molecule antagonists of the estrogen receptor beta (ER-beta) signaling pathway - cell viability counter screen (AID 1259382); further: nearly all actives have a fitted effect of over 55% in size
Method in brief: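 Luminescent ATP read-out (CellTiter-Glo, 30 min, RT) taken in the same wells as the bla reporter assay. HEK293T ER-beta-UAS-bla cells in 2% charcoal-stripped FBS were exposed to compounds with 1nM E2 for 16 hr at 37C.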

[2] = qHTS assay to identify small molecule agonists of the progesterone receptor (PR) signaling pathway - cell viability counter screen (AID 1346799; calls by dose curve; further: nearly all actives have a fitted effect of over 45% in size)
Method in brief: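 In parallel with the beta-lactamase readout, cytotoxicity toward PR-UAS-bla HEK293T cells was measured by CellTiter-Glo luminescence following 16 hr compound incubation in 2% charcoal-stripped FBS medium.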

[3] = target: Thyrotropin receptor (Homo sapiens) (UniProt P16473); test: qHTS assay to identify small molecule antagonists of the thyroid stimulating hormone receptor (TSHR) signaling pathway (AID 1259385; calls by dose curve; further: nearly all actives have a fitted effect of over 20% in size; on activity change, negative = inhibition: on the % scale 0 is the no-effect control and ±100 the full control effect); conditions: TSHR-HEK293 cAMP HTRF, TSH-stimulated antagonist mode; activity change, negative = inhibition: at 92.4 µM (top of the series) unless noted
Method in brief: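 TSHR-HEK293 cells were plated and held 18 h at 37C/5% CO2, then given compound plus Ro20-1724 and stimulated with TSH at 1.5 ng/mL final. After 30 min at room temperature, cAMP was detected with cAMP-d2/anti-cAMP-cryptate (1 h) by fluorescence.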

[4] = qHTS assay to identify small molecule agonists of the estrogen receptor alpha (ER-alpha) signaling pathway in the presence of an antagonist - cell viability counter screen (AID 1259386);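 further: cells exposed to compounds for 22 h at 37 °C before the viability read; nearly all actives have a fitted effect of over 30% in size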
Method in brief: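 Read-out: CellTiter-Fluor fluorescence after 1hr reagent incubation, measured in the same wells as the luciferase readout. VM7Luc4E2 cells were exposed to 15 compound concentrations with 10.0nM ICI-182,780 for 22hr at 37C.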

[5] = target: Progesterone receptor (Homo sapiens) (UniProt P06401); test: qHTS assay to identify small molecule antagonists of the progesterone receptor (PR) signaling pathway (AID 1346795; active means well fitted inhibition curve with a large enough effect in the signal ratio in the repeat runs, not every such curve was filed as active; inconclusive means weak or mixed curves; the % refers to the signal ratio; on activity change, negative = inhibition: on the % scale 0 is the no-effect control and ±100 the full control effect); conditions: PR-UAS-bla HEK293T, beta-lactamase FRET ratio, 16 h; activity change, negative = inhibition: at 92.4 µM (top of the series) unless noted
Method in brief: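 Fluorescence intensity measured 2 hr after adding beta-lactamase FRET substrate to PR-UAS-bla HEK293T cells that had been co-treated 16 hr with compound and 1 nM R5020 (final concentration) in 2% charcoal-stripped FBS.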

[6] = qHTS assay to identify small molecule antagonists of the TGF-beta/Smad signaling pathway - cell viability counter screen (AID 1346824); further: nearly all actives have a fitted effect of over 50% in size
Method in brief: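 SBE-bla HEK 293T cells were plated overnight at 37 C, then given compounds in DMSO plus TGF-beta1 (added as 0.25 ng/mL solution) for 5 hr. After the bla read, CellTiter-Glo was added to the same wells and luminescence read after 30 min at room temperature.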

[7] = qHTS assay to identify small molecule antagonists of the TGF-beta/Smad signaling pathway (AID 1346924; active means well fitted inhibition curve with a large enough effect in the signal ratio in the repeat runs, not every such curve was filed as active; inconclusive means weak or mixed curves; the % refers to the signal ratio); conditions: SBE-bla HEK293T, TGF-beta/Smad reporter, beta-lactamase ratio; activity, negative = inhibition: at 76.8 µM (top of the series) unless noted
Method in brief: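 Read-out was FRET-substrate fluorescence (405 nm excitation; 460 and 530 nm emission) after 2 h at room temperature. Before that, cells carrying a Smad-binding-element beta-lactamase reporter in HEK 293T had been stimulated 5 h at 37 C with TGF-beta1 (0.25 ng/mL addition solution) in the presence of test compound.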

[8] = Caspase-3/7 induction in CHO-K1 cells by small molecules, qHTS cell viability counter screen (AID 1346979); further: nearly all actives have a fitted effect of over 35% in size
Method in brief: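 Viability readout by fluorescence (CellTiter-Fluor) on wild-type CHO-K1 cells exposed for 16hr at 37C and 5% CO2 to compounds delivered in DMSO; reagent incubated 1hr before reading.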

[9] = target: Progesterone receptor (Homo sapiens) (UniProt P06401); test: qHTS assay to identify small molecule agonists of the progesterone receptor (PR) signaling pathway (AID 1346784; calls by dose curve; further: nearly all actives have a fitted effect of over 30% in size; on activation: on the % scale 0 is the no-effect control and ±100 the full control effect); conditions: PR-UAS-bla HEK293T, beta-lactamase FRET ratio, 16 h; activation: at 92.4 µM (top of the series) unless noted
Method in brief: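 Fluorescence from LiveBLAzer B/G FRET substrate cleavage (2 hr, RT) reported PR activation in PR-UAS-bla HEK 293T cells treated 16 hr at 37C/5% CO2 with compounds; medium contained 2% charcoal-stripped FBS.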

[10] = qHTS assay to identify small molecule antagonists of the progesterone receptor (PR) signaling pathway - cell viability counter screen (AID 1346798); further: nearly all actives have a fitted effect of over 50% in size
Method in brief: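 CellTiter-Glo luminescence; PR-UAS-bla HEK293T, 3,000 cells/well; compound + R5020, 16 hr, 37C/5% CO2; 30 min RT before read.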

[11] = qHTS assay to identify small molecule agonists of the TGF-beta/Smad signaling pathway - cell viability counter screen (AID 1346829); further: nearly all actives have a fitted effect of over 45% in size
Method in brief: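 Cytotoxicity counter screen: CellTiter-Glo luminescence (30 min, room temperature) measured in the SBE-bla HEK 293T reporter wells after 5 hr compound treatment at 37 C and the 2 hr substrate step.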

[12] = qHTS assay to identify small molecule agonists of the TGF-beta/Smad signaling pathway (AID 1346859; active means well fitted activation curve with a large enough effect in the signal ratio in the repeat runs, not every such curve was filed as active; inconclusive means weak or mixed curves; the % refers to the signal ratio); conditions: SBE-bla HEK293T, TGF-beta/Smad beta-lactamase reporter, 5 h; activation: at 76.8 µM (top of the series)
Method in brief: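 After overnight seeding, SBE-bla HEK 293T cells are dosed with compounds in DMSO and kept 5 hr at 37 C, 5% CO2. LiveBLAzer-type FRET substrate is then applied for 2 hr at room temperature.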

[13] = target: Thyrotropin-releasing hormone receptor (Homo sapiens) (UniProt P34981); test: qHTS assay to identify small molecule antagonists of the thyrotropin-releasing hormone receptor (TRHR) signaling pathway (AID 1346877; active means well fitted inhibition curve with a large enough effect in the repeat runs, not every such curve was filed as active; inconclusive means weak or mixed curves)
Method in brief: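 HEK293/TRHR cells, 18 h, 37 °C; Ca2+ dye 2 h; cpd 5 min RT; TRH 1 nM final; fluorescence read 3 min, 1 s intervals; 15 concs, triplicate.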

[14] = target: Thyrotropin-releasing hormone receptor (Homo sapiens) (UniProt P34981); test: qHTS assay to identify small molecule agonists of the thyrotropin-releasing hormone receptor (TRHR) signaling pathway (AID 1346891; calls by dose curve)
Method in brief: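 Compounds were tested as agonists at 15 concentrations, in triplicate, on TRHR-Hek293 cells; calcium-sensitive dye fluorescence was recorded for 3 min following addition.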

[15] = Human pregnane X receptor (PXR) small molecule agonists, qHTS cell viability counter screen (AID 1346977); further: nearly all actives have a fitted effect of over 50% in size
Method in brief: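 Viability counter screen: CellTiter-Fluor signal in PXR-Luc HepG2 cells, 24hr compound exposure, 37C, 5% CO2.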

[16] = Caspase-3/7 induction in CHO-K1 cells by small molecules, qHTS assay (AID 1346980); further: nearly all actives have a fitted effect of over 15% in size
Method in brief: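 Wild-type cells were seeded at 1,500 per well and settled 5 hr at 37 C, 5% CO2, then exposed to DMSO-dissolved compounds for 17 hr. Caspase-Glo 3/7 reagent was added, and luminescence was read after 30min at room temperature.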

[17] = target: Estrogen receptor (Homo sapiens) (UniProt P03372); test: qHTS assay to identify small molecule agonists of the estrogen receptor alpha (ER-alpha) signaling pathway in the presence of an antagonist (AID 1259383; calls by dose curve; further: nearly all actives have a fitted effect of over 15% in size)
Method in brief: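 Luciferase luminescence (ONE-Glo, 30min at room temperature) measured in VM7Luc4E2 cells after 22hr compound exposure at 15 concentrations, with 10.0nM ICI-182,780 final present; cells express endogenous ER-alpha and carry four EREs upstream of luciferase.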

[18] = Caspase-3/7 induction in HepG2 cells by small molecules, qHTS assay (AID 1346978); further: nearly all actives have a fitted effect of over 15% in size
Method in brief: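 Wild-type HepG2 cells (2,000/well) were settled 5 h at 37 C, 5% CO2, then exposed to compounds in DMSO for 17 h. Caspase-3/7 activity was read by luminescence 30 min after adding Caspase-Glo 3/7 reagent at room temperature.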
Potency means the concentration at half of the fitted maximal effect; tags describe the fitted curve by direction and shape or compound fluorescence and quenching.

Chain of UniProt P06401 (P06401 whole entry, looked up): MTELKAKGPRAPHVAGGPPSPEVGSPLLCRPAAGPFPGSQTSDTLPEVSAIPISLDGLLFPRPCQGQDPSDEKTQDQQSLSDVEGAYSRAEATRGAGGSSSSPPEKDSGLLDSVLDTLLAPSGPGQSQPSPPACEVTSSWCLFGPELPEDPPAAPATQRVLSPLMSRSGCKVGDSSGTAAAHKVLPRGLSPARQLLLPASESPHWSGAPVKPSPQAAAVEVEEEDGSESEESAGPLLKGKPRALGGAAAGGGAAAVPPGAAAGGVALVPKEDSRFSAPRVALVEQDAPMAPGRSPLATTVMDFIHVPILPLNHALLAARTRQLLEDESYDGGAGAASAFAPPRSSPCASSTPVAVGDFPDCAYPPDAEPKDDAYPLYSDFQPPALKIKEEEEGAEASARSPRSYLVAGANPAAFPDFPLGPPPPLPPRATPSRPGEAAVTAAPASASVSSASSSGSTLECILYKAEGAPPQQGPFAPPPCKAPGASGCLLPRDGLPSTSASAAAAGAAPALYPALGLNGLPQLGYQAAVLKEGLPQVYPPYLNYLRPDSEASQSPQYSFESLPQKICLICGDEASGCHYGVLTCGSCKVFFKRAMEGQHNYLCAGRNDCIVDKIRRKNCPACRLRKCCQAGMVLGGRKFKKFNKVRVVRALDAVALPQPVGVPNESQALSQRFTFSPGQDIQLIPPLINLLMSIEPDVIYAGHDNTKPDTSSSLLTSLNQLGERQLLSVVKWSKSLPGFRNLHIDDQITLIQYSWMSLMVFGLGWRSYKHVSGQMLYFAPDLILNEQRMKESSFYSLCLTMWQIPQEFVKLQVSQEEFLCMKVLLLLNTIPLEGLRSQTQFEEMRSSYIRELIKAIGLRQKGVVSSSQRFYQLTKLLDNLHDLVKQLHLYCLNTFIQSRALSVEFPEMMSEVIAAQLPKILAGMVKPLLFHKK
Chain of UniProt P16473 (P16473 whole entry, looked up): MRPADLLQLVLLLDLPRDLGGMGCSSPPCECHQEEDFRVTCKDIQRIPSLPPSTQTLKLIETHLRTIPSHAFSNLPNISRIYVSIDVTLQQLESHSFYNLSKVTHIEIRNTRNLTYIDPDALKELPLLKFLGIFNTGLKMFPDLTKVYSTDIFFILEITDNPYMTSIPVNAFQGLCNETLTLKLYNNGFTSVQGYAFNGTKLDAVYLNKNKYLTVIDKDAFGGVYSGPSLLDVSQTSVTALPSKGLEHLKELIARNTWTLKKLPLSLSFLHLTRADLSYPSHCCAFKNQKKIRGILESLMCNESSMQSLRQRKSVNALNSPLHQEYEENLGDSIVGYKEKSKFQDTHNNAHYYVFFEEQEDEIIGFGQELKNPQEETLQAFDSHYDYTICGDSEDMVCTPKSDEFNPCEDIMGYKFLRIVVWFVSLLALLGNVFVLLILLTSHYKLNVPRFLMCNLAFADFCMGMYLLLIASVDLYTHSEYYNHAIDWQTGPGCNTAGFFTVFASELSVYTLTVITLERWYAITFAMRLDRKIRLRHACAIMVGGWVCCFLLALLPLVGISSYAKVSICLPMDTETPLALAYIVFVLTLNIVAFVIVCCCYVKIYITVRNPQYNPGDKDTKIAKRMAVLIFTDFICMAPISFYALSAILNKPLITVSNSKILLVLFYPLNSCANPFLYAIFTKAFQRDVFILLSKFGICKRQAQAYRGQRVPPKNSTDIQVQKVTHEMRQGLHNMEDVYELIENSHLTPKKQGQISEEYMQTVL
Chain of UniProt P34981 (P34981 whole entry, looked up): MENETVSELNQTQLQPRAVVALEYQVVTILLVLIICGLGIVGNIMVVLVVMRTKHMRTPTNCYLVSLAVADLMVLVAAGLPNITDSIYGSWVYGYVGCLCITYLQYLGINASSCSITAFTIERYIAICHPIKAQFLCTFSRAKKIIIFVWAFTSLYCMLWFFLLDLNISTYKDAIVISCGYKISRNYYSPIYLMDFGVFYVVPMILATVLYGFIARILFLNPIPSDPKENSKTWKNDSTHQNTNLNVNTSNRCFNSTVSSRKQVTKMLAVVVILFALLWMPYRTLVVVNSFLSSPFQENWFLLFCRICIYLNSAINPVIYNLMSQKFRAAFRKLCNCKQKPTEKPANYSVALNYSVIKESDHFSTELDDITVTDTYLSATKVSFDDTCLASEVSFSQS
Chain of UniProt P03372 (P03372 whole entry, looked up): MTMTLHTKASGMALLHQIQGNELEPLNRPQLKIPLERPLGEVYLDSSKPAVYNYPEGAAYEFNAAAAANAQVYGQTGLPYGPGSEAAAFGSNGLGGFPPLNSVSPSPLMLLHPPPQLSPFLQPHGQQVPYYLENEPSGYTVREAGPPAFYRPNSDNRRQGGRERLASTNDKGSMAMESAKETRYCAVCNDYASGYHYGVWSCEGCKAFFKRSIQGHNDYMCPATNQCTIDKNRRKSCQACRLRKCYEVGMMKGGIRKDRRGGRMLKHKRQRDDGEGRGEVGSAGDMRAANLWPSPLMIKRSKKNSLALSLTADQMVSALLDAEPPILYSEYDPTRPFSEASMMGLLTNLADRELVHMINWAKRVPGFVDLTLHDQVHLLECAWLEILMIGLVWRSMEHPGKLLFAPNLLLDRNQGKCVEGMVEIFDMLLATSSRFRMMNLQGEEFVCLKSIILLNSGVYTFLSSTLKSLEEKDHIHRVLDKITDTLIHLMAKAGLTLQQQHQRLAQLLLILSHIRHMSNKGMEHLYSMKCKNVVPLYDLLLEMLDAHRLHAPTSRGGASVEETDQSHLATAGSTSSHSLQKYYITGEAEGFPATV

COC[C@@H](NC(C)=O)C(=O)NCc1ccccc1
inconclusive: Potency [2] 3.35 µM [cytotoxic, single point]
inactive: Potency [1]

O=C(NC(=O)c1c(F)cccc1F)Nc1ccc(Oc2ccc(C(F)(F)F)cc2Cl)cc1F
active: Potency [8] 61.1 µM
inconclusive: Potency [3] 61.1 µM [falling, partial curve] | Potency [4] 68.6 µM [cytotoxic, single point] | Potency [2] 4.86 µM [rising, partial curve] | Potency [6] 19.5 µM [cytotoxic, partial curve, poor fit] | Potency [7] 30.9 µM [rising, partial curve]
inactive: Potency [5]

ClC1=C(Cl)[C@]2(Cl)[C@@H]3[C@@H]4C[C@@H]([C@H]5O[C@@H]45)[C@@H]3[C@@]1(Cl)C2(Cl)Cl
inconclusive: activity change, negative = inhibition [3] 0.36% [phenotype inactive] | Potency [9] 68.6 µM [cytotoxic] | Potency [5] 13.7 µM [inhibitor] | Potency [10] 77 µM [cytotoxic] | Potency [2] 68.6 µM [cytotoxic, single point] | Potency [6] 34.7 µM [cytotoxic, partial curve, poor fit] | Potency [11] 17.4 µM [cytotoxic, partial curve] | Potency [12] 61.7 µM | Potency [13] 30.1 µM [inhibitor] | Potency [14] 15.5 µM [activator] | Potency [7] 50.4 µM [inhibitor] | Potency [15] 68.6 µM [cytotoxic] | Potency [16] 64.8 µM [activator]

CC(=O)Nc1ccc2c(c1)Cc1ccccc1-2
active: Potency [17] 8.77 µM
inconclusive: Potency [5] 7.81 µM | Potency [2] 69.6 µM [rising, single point]

O=C(O)C(F)(F)C(F)(F)C(F)(F)C(F)(F)C(F)(F)C(F)(F)C(F)(F)F
inconclusive: Potency [1] 48.5 µM [cytotoxic, partial curve] | Potency [10] 19.3 µM [cytotoxic, full curve, poor fit] | Potency [2] 21.7 µM [cytotoxic, partial curve] and 15.3 µM [cytotoxic, full curve]

CCOP(=S)(OCC)OC(Cl)C(Cl)(Cl)Cl (stereo not given)
inconclusive: Potency [3] 68.6 µM

C=CCC1=C(C)C(OC(=O)C2C(C=C(C)C)C2(C)C)CC1=O (stereo not given)
inconclusive: Potency [4] 77 µM [cytotoxic] | Potency [9] 29 µM [falling, full curve] | Potency [5] 8.52 µM | Potency [10] 16.3 µM [rising, partial curve, poor fit] | Potency [2] 25.8 µM | Potency [6] 30.9 µM [cytotoxic, partial curve] | Potency [14] 46.3 µM [activator, single point] | Potency [7] 48.3 µM | Potency [15] 68.6 µM [cytotoxic]
active: Potency [3] 61.1 µM | Potency [8] 55.3 µM

CC1CCC(C(C)C)C(OC(=O)c2ccccc2N)C1 (stereo not given)
inconclusive: Potency [4] 67.6 µM [cytotoxic, single point] | activation [9] 0.68% | Potency [5] 15.1 µM [rising, partial curve] | Potency [6] 21.6 µM [cytotoxic, single point] | Potency [11] 38.4 µM [cytotoxic, partial curve] | Potency [15] 67.6 µM [cytotoxic, single point] | Potency [18] 67.6 µM [activator, single point] | Potency [8] 67.6 µM [cytotoxic, single point] | Potency [16] 67.6 µM [activator, single point]
active: Potency [3] 60.3 µM | Potency [10] 60.3 µM | Potency [2] 53.7 µM

CCCN(CCC)c1c([N+](=O)[O-])cc(S(N)(=O)=O)cc1[N+](=O)[O-]
inconclusive: Potency [3] 0.433 µM [falling, full curve] | Potency [4] 17.2 µM [cytotoxic, full curve] | Potency [9] 52.4 µM [cytotoxic, partial curve] | Potency [5] 60.6 µM | Potency [10] 1.46 µM [cytotoxic, single point] | Potency [2] 14.6 µM [rising, partial curve, poor fit] | Potency [6] 37 µM [cytotoxic] | Potency [12] 65.8 µM [falling, single point] | Potency [13] 31.9 µM [inhibitor, single point] | Potency [14] 46.5 µM [activator, partial curve, poor fit] | Potency [7] 45.2 µM [inhibitor, partial curve]
active: Potency [11] 58.6 µM | Potency [15] 50.1 µM
